Drawing on the supplement of paper PMC4604168 (melanoma cell lines), this text covers cell count for 21 molecules.

The other results are listed elsewhere or left out. Many values rest on one well or one pass, so single values are uncertain.

Test systems include WM115; WM1716; WM1745; WM3526; WM3619; WM451Lu.
Common to all, as to assay: cell count relative to DMSO control; melanoma cells; higher = more viable cells
Details in all cases: library dose: low library concentration; 72 h
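Note: cell number obtained by counting DAPI-stained nuclei in high-throughput microscope images with image analysis software, screen run in 1,536-well plates.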

With `Cc1cc(Nc2cc(N3CCN(C)CC3)nc(Sc3ccc(NC(=O)C4CC4)cc3)n2)n[nH]1` [Tozasertib] + COc1cc2ncnc(Nc3ccc(Oc4ccccc4)cc3)c2cc1OC [SrcI1] (first compound 0.006 µM, partner dose 2 µM), the cell count in the experiment with WM115 was 88.8%; in the experiment on WM1716 it was 89.1%; in the experiment on WM1745, 68.7%; in the experiment with WM3526, 72.8%; in the experiment with WM3619, 91.4%; with WM451Lu, 118%.

Consider `CC[C@]1(O)C[C@H]2CN(CCc3c([nH]c4ccccc34)[C@@](C(=O)OC)(c3cc4c(cc3OC)N(C=O)[C@H]3[C@@](O)(C(=O)OC)[C@H](OC(C)=O)[C@]5(CC)C=CCN6CC[C@]43[C@@H]65)C2)C1` [vincristine] + O=C(CCCCCCC(=O)Nc1ccccc1)NO [vorinostat] (first compound 0.0001 µM, partner dose 0.08 µM), for which the cell count came to 67.2% in the experiment on WM115; 50.9% in the experiment on WM1716; 106% in the experiment on WM1745; 96.2% with WM3526; 67.7% with WM3619; 68% with WM451Lu.

Consider `CC[C@]1(O)C[C@H]2CN(CCc3c([nH]c4ccccc34)[C@@](C(=O)OC)(c3cc4c(cc3OC)N(C=O)[C@H]3[C@@](O)(C(=O)OC)[C@H](OC(C)=O)[C@]5(CC)C=CCN6CC[C@]43[C@@H]65)C2)C1` [vincristine] + COc1cc(Nc2ncc(F)c(Nc3ccc4c(n3)NC(=O)C(C)(C)O4)n2)cc(OC)c1OC [Tamatinib] (first compound 0.0001 µM, partner dose 0.4 µM), for which the cell count with WM115 was determined as 38.4%; with WM1716, 50.6%; with WM1745, 51.6%; with WM3526, 56.9%; in the experiment on WM3619, 65.3%; in the experiment on WM451Lu, 53.7%.

As for `CC[C@]1(O)C[C@H]2CN(CCc3c([nH]c4ccccc34)[C@@](C(=O)OC)(c3cc4c(cc3OC)N(C=O)[C@H]3[C@@](O)(C(=O)OC)[C@H](OC(C)=O)[C@]5(CC)C=CCN6CC[C@]43[C@@H]65)C2)C1` [vincristine] + NC(=O)Nc1cc(-c2cccc(F)c2)sc1C(=O)N[C@H]1CCCNC1 [AZD7762] (first compound 0.0001 µM, partner dose 0.02 µM), the cell count in the experiment with WM115 stood at 42.5%; in the experiment on WM1716 it was 40.6%; with WM1745 it was 97.3%; in the experiment on WM3526, 56.5%; in the experiment with WM3619 it was 44.6%; in the experiment with WM451Lu, 71.8%.

As to `CC[C@]1(O)C[C@H]2CN(CCc3c([nH]c4ccccc34)[C@@](C(=O)OC)(c3cc4c(cc3OC)N(C=O)[C@H]3[C@@](O)(C(=O)OC)[C@H](OC(C)=O)[C@]5(CC)C=CCN6CC[C@]43[C@@H]65)C2)C1` [vincristine] + O=C(O)[C@@H]1[O][Sb](=[O])([O][Sb]2(=[O])[O][C@H]([C@H](O)CO)[C@H](O)[C@H](C(=O)O)[O]2)[O][C@H]([C@H](O)CO)[C@@H]1O [stibogluconate] (first compound 0.0001 µM, partner dose 2 µM), the cell count with WM115 worked out at 88.4%; with WM1716, 67.8%; in the experiment with WM1745, 120%; in the experiment with WM3526 it was 96.5%; with WM3619, 95.6%; in the experiment with WM451Lu, 67.1%.

Consider `N#CC[C@H](C1CCCC1)n1cc(-c2ncnc3[nH]ccc23)cn1` [ruxolitinib] + CN(c1ncccc1CNc1nc(Nc2ccc3c(c2)CC(=O)N3)ncc1C(F)(F)F)S(C)(=O)=O [PF562271] (first compound 1 µM, partner dose 0.08 µM), for which the cell count with WM115 is 101%; in the experiment with WM1716, 82.7%; in the experiment with WM1745, 102%; in the experiment with WM3526 it was 97.3%; in the experiment on WM3619 it was 101%; in the experiment on WM451Lu, 76.5%.

Regarding `N#CC[C@H](C1CCCC1)n1cc(-c2ncnc3[nH]ccc23)cn1` [ruxolitinib] + COc1ccc(C2=N[C@@H](c3ccc(Cl)cc3)[C@@H](c3ccc(Cl)cc3)N2C(=O)N2CCNC(=O)C2)c(OC(C)C)c1 [Nutlin-3] (first compound 1 µM, partner dose 0.1 µM), the cell count was 99.4% in the experiment on WM115; 119% in the experiment with WM1716; 109% with WM1745; 111% in the experiment with WM3526; 133% with WM3619; 133% in the experiment on WM451Lu.

With `CC[C@]1(O)C[C@H]2CN(CCc3c([nH]c4ccccc34)[C@@](C(=O)OC)(c3cc4c(cc3OC)N(C=O)[C@H]3[C@@](O)(C(=O)OC)[C@H](OC(C)=O)[C@]5(CC)C=CCN6CC[C@]43[C@@H]65)C2)C1` [vincristine] + O=C(O)C(=O)Nc1sc2c(c1C(=O)O)CCNC2 [TCS401] (first compound 0.0001 µM, partner dose 1.66667 µM), the cell count with WM115 was determined as 65.2%; in the experiment on WM1716, 46.7%; in the experiment on WM1745, 64.6%; in the experiment on WM3526 it was 67.5%; with WM3619, 56%; with WM451Lu, 57.5%.

For `Cc1cc(Nc2cc(N3CCN(C)CC3)nc(Sc3ccc(NC(=O)C4CC4)cc3)n2)n[nH]1` [Tozasertib] + COCC[n+]1c2c(n(Cc3cnccn3)c1C)C(=O)c1ccccc1C2=O [YM155] (first compound 0.006 µM, partner dose 0.0004 µM), the cell count with WM115 is 90.6%; in the experiment with WM1716, 85.9%; with WM1745 it was 92.1%; with WM3526, 111%; with WM3619, 112%; in the experiment with WM451Lu it was 85.5%.

Consider `N#CC[C@H](C1CCCC1)n1cc(-c2ncnc3[nH]ccc23)cn1` [ruxolitinib] + CO[C@@H]1[C@H](N(C)C(=O)c2ccccc2)C[C@H]2O[C@]1(C)n1c3ccccc3c3c4c(c5c6ccccc6n2c5c31)C(=O)NC4 [Midostaurin] (first compound 1 µM, partner dose 0.08 µM), for which the cell count was 75.8% in the experiment on WM115; 72.2% in the experiment on WM1716; 83.9% with WM1745; 112% with WM3526; 90.8% in the experiment on WM3619; 90.5% in the experiment on WM451Lu.

`N#CC[C@H](C1CCCC1)n1cc(-c2ncnc3[nH]ccc23)cn1` [ruxolitinib] + C#Cc1cccc(Nc2ncnc3cc(OCCOC)c(OCCOC)cc23)c1 [erlotinib] (first compound 1 µM, partner dose 0.8 µM): the cell count was 112% in the experiment on WM115; 101% with WM1716; 65.9% in the experiment with WM1745; 88.3% in the experiment with WM3526; 96.8% in the experiment on WM3619; 88.6% in the experiment on WM451Lu.

For the molecule `N#CC[C@H](C1CCCC1)n1cc(-c2ncnc3[nH]ccc23)cn1` [ruxolitinib] + CC(C)CCN1c2nc(Nc3cc(F)c(O)c(F)c3)ncc2N(C)C(=O)C1C [BID1870] (first compound 1 µM, partner dose 0.2 µM), the cell count worked out at 108% in the experiment with WM115; 108% in the experiment with WM1716; 107% in the experiment on WM1745; 102% in the experiment on WM3526; 90% in the experiment on WM3619; 106% with WM451Lu.

`Cc1cc(Nc2cc(N3CCN(C)CC3)nc(Sc3ccc(NC(=O)C4CC4)cc3)n2)n[nH]1` [Tozasertib] + COc1ccc2c(c1)CCC1C2CCC2(C)C(NCCCCCCN3C(=O)C=CC3=O)CCC12 [U73122] (first compound 0.006 µM, partner dose 0.4 µM): the cell count with WM115 was 87.2%; in the experiment with WM1716 it was 77.6%; in the experiment on WM1745, 90.8%; in the experiment on WM3526, 87.5%; with WM3619 it was 114%; in the experiment with WM451Lu, 92.7%.

For the molecule `CC[C@]1(O)C[C@H]2CN(CCc3c([nH]c4ccccc34)[C@@](C(=O)OC)(c3cc4c(cc3OC)N(C=O)[C@H]3[C@@](O)(C(=O)OC)[C@H](OC(C)=O)[C@]5(CC)C=CCN6CC[C@]43[C@@H]65)C2)C1` [vincristine] + O=C(Nc1cc(C(F)(F)F)cc(C(F)(F)F)c1)c1cc(Cl)ccc1O [IMD0354] (first compound 0.0001 µM, partner dose 0.016 µM), the cell count in the experiment with WM115 was determined as 65.2%; with WM1716, 44.3%; in the experiment with WM1745 it was 85%; with WM3526, 53.9%; in the experiment on WM3619, 44.9%; in the experiment with WM451Lu, 48.7%.

Regarding `N#CC[C@H](C1CCCC1)n1cc(-c2ncnc3[nH]ccc23)cn1` [ruxolitinib] + COC(=O)c1sccc1S(=O)(=O)Nc1ccc(Nc2ccccc2)cc1OC [GSK0660] (first compound 1 µM, partner dose 1 µM), the cell count with WM115 came out at 124%; in the experiment on WM1716, 109%; in the experiment on WM1745, 99.5%; in the experiment on WM3526, 111%; in the experiment on WM3619, 101%; with WM451Lu, 111%.

As to `Cc1cc(Nc2cc(N3CCN(C)CC3)nc(Sc3ccc(NC(=O)C4CC4)cc3)n2)n[nH]1` [Tozasertib] + Cc1cn(-c2cc(NC(=O)c3ccc(C)c(Nc4nccc(-c5cccnc5)n4)c3)cc(C(F)(F)F)c2)cn1 [nilotinib] (first compound 0.006 µM, partner dose 0.2 µM), the cell count in the experiment with WM115 turned out to be 101%; in the experiment with WM1716 it was 91.1%; with WM1745, 75.5%; in the experiment with WM3526, 105%; in the experiment with WM3619, 117%; in the experiment on WM451Lu, 107%.

In the case of `CC[C@]1(O)C[C@H]2CN(CCc3c([nH]c4ccccc34)[C@@](C(=O)OC)(c3cc4c(cc3OC)N(C=O)[C@H]3[C@@](O)(C(=O)OC)[C@H](OC(C)=O)[C@]5(CC)C=CCN6CC[C@]43[C@@H]65)C2)C1` [vincristine] + CCc1ccc(CCOc2ccc(CC3SC(=O)NC3=O)cc2)nc1 [pioglitazone] (first compound 0.0001 µM, partner dose 2 µM), the cell count with WM115 amounted to 53.9%; with WM1716, 35.5%; with WM1745, 76.3%; in the experiment with WM3526 it was 67.3%; with WM3619, 58.5%; with WM451Lu, 46.5%.

As for `Cc1cc(Nc2cc(N3CCN(C)CC3)nc(Sc3ccc(NC(=O)C4CC4)cc3)n2)n[nH]1` [Tozasertib] + NC1(c2ccc(-c3nc4ccn5c(=O)[nH]nc5c4cc3-c3ccccc3)cc2)CCC1 [MK2206] (first compound 0.006 µM, partner dose 0.4 µM), the cell count is 77.1% in the experiment with WM115; 80.3% in the experiment with WM1716; 82.1% in the experiment with WM1745; 67.7% in the experiment with WM3526; 90.2% with WM3619; 129% in the experiment with WM451Lu.

For the molecule `CC[C@]1(O)C[C@H]2CN(CCc3c([nH]c4ccccc34)[C@@](C(=O)OC)(c3cc4c(cc3OC)N(C=O)[C@H]3[C@@](O)(C(=O)OC)[C@H](OC(C)=O)[C@]5(CC)C=CCN6CC[C@]43[C@@H]65)C2)C1` [vincristine] + Cn1c(=O)n(-c2ccc(C(C)(C)C#N)cc2)c2c3cc(-c4cnc5ccccc5c4)ccc3ncc21 [NVP-BEZ235] (first compound 0.0001 µM, partner dose 0.004 µM), the cell count was 43.9% in the experiment on WM115; 44.1% with WM1716; 87.4% in the experiment on WM1745; 78.8% in the experiment with WM3526; 81.5% in the experiment on WM3619; 56.3% with WM451Lu.

Turning to `Cc1cc(Nc2cc(N3CCN(C)CC3)nc(Sc3ccc(NC(=O)C4CC4)cc3)n2)n[nH]1` [Tozasertib] + CN(C)S(=O)(=O)c1ccc2c(c1)/C(=C/c1cc3c([nH]1)CCCC3)C(=O)N2 [SU6656] (first compound 0.006 µM, partner dose 0.4 µM), the cell count in the experiment on WM115 was 79.3%; in the experiment on WM1716, 102%; with WM1745, 79.1%; in the experiment on WM3526 it was 74.4%; in the experiment on WM3619, 106%; in the experiment on WM451Lu, 91.4%.

As to `N#CC[C@H](C1CCCC1)n1cc(-c2ncnc3[nH]ccc23)cn1` [ruxolitinib] + CN1CCN(c2ccc3nc(-c4c(N)c5c(F)cccc5[nH]c4=O)[nH]c3c2)CC1 [Dovitinib] (first compound 1 µM, partner dose 0.1 µM), the cell count turned out to be 123% with WM115; 116% with WM1716; 99.1% in the experiment on WM1745; 102% in the experiment with WM3526; 115% in the experiment with WM3619; 99.9% in the experiment on WM451Lu.
